Holding throughout (assay type): toxicity, cell-based
One series has as its system Fibroblast. The experiment in a line: Multiplex assay against human fibroblast. A digest of the protocol:
(§1)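 Per cents of healthy-nucleus cells form the tubulin, mitochondrial-mass and membrane-permeability phenotype values. Live cells were stained at seeding with Hoechst33342, BioTracker Green Microtubule Cytoskeleton Dye, MitoTracker Red and Annexin V Alexa Fluor 680. After compound addition they were imaged on a CQ1 microscope at 37°C and 5% CO2, and CellPathfinder machine-learning gating split them into Hoechst high-intensity objects or normal cells, normal cells into healthy, pyknosed or fragmented nuclei, and pyknosed cells into mitotic or apoptotic.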

The test system of the next series is HEK-293T. The experiment in a line: Multiplex assay against HEK293T. The note with it: human. A digest of the protocol: as §1
A further series has as its system U2OS. The experiment in a line: Multiplex assay against U2OS. The following applies: human. A digest of the protocol: as §1
Where [1] appears, read: 12 h, 10 µM, compound concentration 10 uM.
Setting [2] is: 24 h, 10 µM, compound concentration 10 uM.
[3] abbreviates: 48 h, 1 µM, compound concentration 1 uM.
[4] abbreviates: 48 h, 10 µM, compound concentration 10 uM.
The mark [5] stands for this setting: 12 h, 1 µM, compound concentration 1 uM.
Setting [6] is: 24 h, 1 µM, compound concentration 1 uM.

For part of its entries the source gives two or more results. Only these are listed. An entry can have further records. Results that share an entry are repeats in other runs, samples, wells, individuals or studies.

Regarding `Cc1cc(Nc2ncc(Cl)c(Nc3ccccc3S(=O)(=O)C(C)C)n2)c(OC(C)C)cc1C1CCNCC1` [CERITINIB], the “Population Membrane Permeable-Phenotype (%)” value with Fibroblast (setting [1]) was 7.14% and 60%; in the series with Fibroblast (setting [2]), 17.65% and 57.39%; with Fibroblast (setting [4]), 5.19% and 27.78%; with U2OS (setting [4]) it was 7.09% and 31.25%. In addition, the “Population Apoptotic (%)” value in the series with Fibroblast (setting [3]) was 12% and 50%. Besides, the “Population Mitochondria Different-Phenotype (%)” value in the series on Fibroblast (setting [4]) was 45.19% and 8.33%; in the series with HEK-293T (setting [1]), 85.71% and 0%; in the series with U2OS (setting [5]) it was 11.21% and 81.63%; in the series with U2OS (setting [6]) it was 8.55% and 84.87%; in the series on U2OS (setting [3]), 3.1% and 53.44%. Also, the “Population Healthy Nuclei (%)” value with HEK-293T (setting [5]) is 28.35% and 3.85%; with HEK-293T (setting [6]), 50.36% and 16.18%. Further, the “Population Tubulin-Different-Phenotype (%)” value is 85.71% and 0% in the series with HEK-293T (setting [1]); 7.44% and 83.78% with HEK-293T (setting [3]); 10.85% and 33.59% in the series with U2OS (setting [3]). In the series with HEK-293T (setting [2]), the “Population Mitotic Cells (%)” value was 35.76% and 11.76%. The “Total Cell Count” value in the series on HEK-293T (setting [3]) is 485 and 127.

Values taken from ChEMBL document CHEMBL5724801, “EUbOPEN Chemogenomics Library - Multiplex” (2024).
